In PMC12136788 one finds binding signal data, which are given here for 22 molecules.

The list shows a part of the results.

Sequences and labels used below:
T1: UNK ZnF1-3 (human, UniProt Q9C0B0 31-174)
T1 sequence: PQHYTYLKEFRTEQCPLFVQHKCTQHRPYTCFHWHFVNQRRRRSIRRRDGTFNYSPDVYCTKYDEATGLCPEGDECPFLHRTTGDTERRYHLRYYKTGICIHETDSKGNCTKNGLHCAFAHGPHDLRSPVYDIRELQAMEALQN

B1: chr19:14671312:14671313:-_ENSMUSG00000024642_ENSMUST00000052011|perfect_dup|FALSE|FALSE (ssRNA)
RNA: GGGAGUUCUACAGUCCGACGAUCAGCCUGUAAAAACUGAAACUCUUCCUUAAUCCGAUCACAGGAUUCUGAAAUUGUAAAUUUGAAGGGUUGAGCAGGCUGAUGCGGUGCCGGGUGGCGCGUCUGCGGGUACAUCUUGCUCAGCAACAGAGGAUUGAGCAUCA
B2: chr4:148551591:148551592:-_ENSMUSG00000063077_ENSMUST00000060537|mus_mus|motif|central (ssRNA)
RNA: GGGAGUUCUACAGUCCGACGAUCACCUUACAAAAUUAAAUAUCCCUGUAAAUUAGACAAGAAGCAGCAGGUAACAAAGUCGGUGCUUUGAAAUAUGUGCCAGGAAAAAUCAUGUUUUAGACCCCAAACACCUUUCACAACCAUCAACAGAGGAUUGAGCAUCA
B3: 117886101_117886221_2421_CDS_ENSMUSG00000033295_ENSMUST00000150096|mouse|control|control (ssRNA)
RNA: GGGAGUUCUACAGUCCGACGAUCGCUGUGCGCUGUUCCCACACCAUCCUCCAGAAAUCGCCCAUGGUCUCGGGCAGCGGACCCUGUGUGGCGAUGUAGGCAUUCUGCUUUCGGUAGCCAUCAAUGUAGUUGGCAUUGAUGUAGCAACAGAGGAUUGAGCAUCA
B4: chr3:97503841:97503842:+_ENSG00000113966_ENST00000463745|hu_mus|motif|central (ssRNA)
RNA: GGGAGUUCUACAGUCCGACGAUCAUCUGGGUGAUUCAGAAGGGUAUCAAGCUCUUCUUUGGCCACAACCAUUCUUAACUUAUCACGGCUAUCAAUGACAAAAAUAAUGGCUUGUCCAUCUUUAUAAUAGUGUUCCCAGAGAUUCAACAGAGGAUUGAGCAUCA
B5: chr17:60770872:60770873:+_ENSG00000011028_ENST00000303375|hu_hu|FALSE|FALSE (ssRNA)
RNA: GGGAGUUCUACAGUCCGACGAUCUUGCUUUUCUUUUUUCCUUUUUUUUUAAAAACAAUAAUGGCACAUUUAAAAAAUCAACUACAGAGAAAGGGCCAUGUCUUCGAGUCCAUGUUCACAUUGUCCCACGCUGUCGCACCAGGACAACAGAGGAUUGAGCAUCA
B6: chr2:48034816:48034817:-_ENSG00000138081_ENST00000403359|hu_hu|motif|central (ssRNA)
RNA: GGGAGUUCUACAGUCCGACGAUCAUAUUUCUCAAUCUGAAUACAUGUUAAAAAAAAAAAAUCAAAAGGAACGCAGAAGUGCGGGCUCACAUUUUUACCAUAUUACAAAAGCAAUUGGUACCCAUGUCCAUAAAGGCAGCAACACAACAGAGGAUUGAGCAUCA
B7: 76784763_76784883_3969_CDS_ENSG00000156650_ENST00000287239|human|control|control (ssRNA)
RNA: GGGAGUUCUACAGUCCGACGAUCCACUUCAAUCUCACAGGUAGGCUCCAGCUGUGGCAUUGGCCUCUCUUCAUCUGAGUUGUCAAAGGGCUCAUUCAGUACUUCUGUCGUCUCUGAAAUGGUCUCUGUUGUUACACUGCUGUUCAACAGAGGAUUGAGCAUCA
B8: chr7:156759685:156759686:+_ENSG00000146909_ENST00000275820|hu_hu|FALSE|FALSE (ssRNA)
RNA: GGGAGUUCUACAGUCCGACGAUCCACCAGAUGAACCAAAUUAGAGAAAUUCGUAGCUGGCAAGUUUUCCAAGUCCCGAAAUUUGUCCCAUAUGCUGAACUGGAAAGUCAUCUGAAAUCUCCUUUCAUAUUCACAGAAUUUGCUCAACAGAGGAUUGAGCAUCA
B9: chr6:136599331:136599332:-_ENSG00000029363_ENST00000527536|hu_mus|FALSE|FALSE (ssRNA)
RNA: GGGAGUUCUACAGUCCGACGAUCGGGGGCAUCUGAGCAUGAUGAACUCUGACUGGGUGGUGUAGCAAUAGGUGAAGGACUAUGAGGUGACCUUGGACUAUUAUCAUAAGCUGAAAGGCCAGGCCAAAUAUCACCAGAAGUAGCCAACAGAGGAUUGAGCAUCA
B10: chr4:140556289:140556290:+_ENSMUSG00000036622_ENSMUST00000037055|mus_mus|mus_mus_mus_hu_False|1_88 (ssRNA)
RNA: GGGAGUUCUACAGUCCGACGAUCGAUGGAGCUCACCAGGCCCCCUUUGGCUGUGCAGAACCCUGUGCGGGUCACCACUGCCAGGACGUGCGGUCCCACAUAGGCCCGGGCCUGCAAGAUGAGGGUCCCGCAGAAGAGGGUGUGCAACAGAGGAUUGAGCAUCA
B11: 32234225_32234345_1156_CDS_ENSMUSG00000040451_ENSMUST00000099514|mouse|control|control (ssRNA)
RNA: GGGAGUUCUACAGUCCGACGAUCCAGGAAAGUCUUGCCCCACUCCAUGGGAUACUGGGAGCGCUCCGGUUCUGGCAUGGGGAUCUUGAUCAUCUCUUUCCUAAACCCAUUUGGCAUUCCGUUGGGUUUAGUCUUGAUGCUGAACAACAGAGGAUUGAGCAUCA
B12: chr5:38528984:38528985:-_ENSMUSG00000029126_ENSMUST00000031009|mus_hu|FALSE|FALSE (ssRNA)
RNA: GGGAGUUCUACAGUCCGACGAUCCAAGAUUCAAACUGGAACAAUUUUCUUACAAAGAUUGUGAGUUGAAAUUUGUCAUUUUGUUUGCACGGUGCCACACCAGUCCCCCACCCCCACCCCACAGCCUUUCCUGCCUGUUUCCCACAACAGAGGAUUGAGCAUCA
B13: 171509719_171509839_3416_CDS_ENSG00000117523_ENST00000367742|human|control|control (ssRNA)
RNA: GGGAGUUCUACAGUCCGACGAUCAACUGACUGUGGCUGAAUUGGUGCUGGUGGCUGAGGUGGUGGUGGGGGAGGAGGAAGAUCCUUCUUUUCCGUCUUUUCAGGCUUUACAACUACUUUUUCAGUGACCUUUUCGGCCUUUUCCAACAGAGGAUUGAGCAUCA
B14: chr18:56819859:56819860:+_ENSG00000166562_ENST00000588875|hu_mus|hu_hu_hu_mus_True|18_68 (ssRNA)
RNA: GGGAGUUCUACAGUCCGACGAUCAACCUUGAUUACUCUGUGAACUAUCGGAAUGUCUCUUCCUUCAACUUUAAAAACAACUAUUUCACCAGCUCUGAUGGGGUCCUCCCGGAAAUUUGUGAGGAACAGCAGAUCUCCUCUGUGCAACAGAGGAUUGAGCAUCA
B15: 27445870_27446515_996_CDS_ENSG00000084774_ENST00000264705|human|control|control (ssRNA)
RNA: GGGAGUUCUACAGUCCGACGAUCAGCAAACCCAUGGUUCUGGGAUGUCAGAAAGCAGCGCCCAGAGCCCACCAACAAGCAGGGCUGGUUAUGGCCUCGGUUCCCAUAUCUCAUCUUGUAAGUCUUGGCCCCAAUGGCUAAGGCCAACAGAGGAUUGAGCAUCA
B16: chr8:104447970:104447971:+_ENSG00000164934_ENST00000297579|hu_hu|hu_hu_hu_mus_False|18_88 (ssRNA)
RNA: GGGAGUUCUACAGUCCGACGAUCAUACACUUCCCUGCUUCGGCUCUUGUCUACAGGAAAGAUUCUAAUAGACUUAUCAAAGCUGGCAGACACAAAUUCCUUCCCAGUGGGAGAGUAAUCCACAUCAAGUACUGCAGACACGUGCAACAGAGGAUUGAGCAUCA
B17: chr10:106027121:106027122:+_ENSG00000148834_ENST00000369713|hu_hu|motif|central (ssRNA)
RNA: GGGAGUUCUACAGUCCGACGAUCGGCCUCAGGGCUGUUCUGUAAGUAGAGCUCUAGGAAACCUUGCCAGUCUUUCUCACGGGUAAGCAGGGCUGAGACUGUGGGAUCUUCCUUCAUGGCUGCCAUCCACAGUUUCAGUUUUGGCAACAGAGGAUUGAGCAUCA
B18: chr11:97022710:97022711:-_ENSMUSG00000001440_ENSMUST00000001479|mus_mus|FALSE|FALSE (ssRNA)
RNA: GGGAGUUCUACAGUCCGACGAUCCACUUUAAAAAAUUACUAAAGCGUGCGAGCAGGGUCACCAUCUGACACCAUUUUACUAAUCUUCAACUUCAGUGGAAAAAUAGAGCCUUCUUCCUGGUGCCAUUUUCAUCACAACAGUUGCAACAGAGGAUUGAGCAUCA
B19: chr2:35971668:35971669:-_ENSMUSG00000026889_ENSMUST00000028251|mus_hu|motif|central (ssRNA)
RNA: GGGAGUUCUACAGUCCGACGAUCGAAUCAGUACAAAUAAUAAACAGUGCUUUAAAUACAAAUAAAUAGCUCUGGUUUCGGAAGGAAACAACUCUAUAUAUAAUUCUAAGUUUUUUCUAAGUUCCUAUUAAAAAUAGAAGACUACAACAGAGGAUUGAGCAUCA
B20: chr9:74904954:74904955:+_ENSMUSG00000007656_ENSMUST00000169492|mus_mus|FALSE|FALSE (ssRNA)
RNA: GGGAGUUCUACAGUCCGACGAUCUCAAAAGGAAGAUACAGAAGAAAUCAAUACAACAGAGGUCCUGUUAAAUAAGAGUAACAUACAAAGCUGUAAUCAUGAGAAAGUAAAGAAAGCCAGAGCAUUAAAGCUGUAAAACUUGCUCAACAGAGGAUUGAGCAUCA
B21: chr3:150289777:150289778:+_ENSG00000144895_ENST00000460851|hu_mus|motif|central (ssRNA)
RNA: GGGAGUUCUACAGUCCGACGAUCUUUCGCAGGCAUAAAACCAUAAACAGCGCAAAACUCAGUAGAACUGGAAUUCCAAACGGCAUCAUAAAUUGGGCCAUUUUUUGGUAAUUGUACCACAGCACUUUCUCCAUUUGUUGCAAUCAACAGAGGAUUGAGCAUCA
B22: chr13:48919227:48919228:+_ENSG00000139687_ENST00000267163|hu_hu|FALSE|FALSE (ssRNA)
RNA: GGGAGUUCUACAGUCCGACGAUCUUUGGUACUGGUAUCAAUUUCUUUUAGUAAGUUAAAGAAUUUAUGGACACUGAUUUCUAUGUUUUUCUGUAGCUCAGUAAAAGUGAACGACAUCUCAUCUAGGUCAACUGCUGCAAUAAACAACAGAGGAUUGAGCAUCA

For the assay, the target named is T1, UNK ZnF1-3. The assay is described as follows: nsRBNS (natural sequence RNA bind-n-seq); RBNS binding buffer (assumed for nsRBNS): 25 mM Tris pH 7.5, 150 mM KCl, 3 mM MgCl2, 0.01% Triton X-100, 500 ug/ml BSA, 20 U/ml SUPERase-In, 4 C; UNK is unkempt and MSI1 is Musashi-1; names of the RNAs are library labels; protein concentration not given here; high values mean tight binding.
As to B1, the binding signal stood at 1.96 enrichment R.

As for B2, the binding signal came to 1.58 enrichment R.

B3 returned a binding signal of 0.579 enrichment R.

B4 came in with a binding signal of 0.999 enrichment R.

As to B5, the binding signal was 1.12 enrichment R.

B6 yielded a binding signal of 1.83 enrichment R.

For the molecule B7, the binding signal is 0.71 enrichment R.

Regarding B8, the binding signal stood at 1.55 enrichment R.

B9 showed a binding signal of 1.74 enrichment R.

In the case of B10, the binding signal is 1.15 enrichment R.

B11 yielded a binding signal of 0.407 enrichment R.

As to B12, the binding signal worked out at 0.872 enrichment R.

B13: the binding signal was determined as 0.514 enrichment R.

Consider B14, for which the binding signal was 0.893 enrichment R.

The molecule B15 gave a binding signal of 1.09 enrichment R.

Consider B16, for which the binding signal came out at 0.83 enrichment R.

For B17, the binding signal came out at 0.652 enrichment R.

Regarding B18, the binding signal is 1.32 enrichment R.

Take B19: the binding signal came to 1.29 enrichment R.

B20 gave a binding signal of 2.34 enrichment R.

For B21, the binding signal is 1.08 enrichment R.

As for B22, the binding signal came to 0.697 enrichment R.
